Data reported in the supplement of paper PMC7826260.
This is one part of the list. One pool of 16,384 single-stranded DNAs met each Rep nickase domain in vitro (3 µM enzyme, 1 h, 37 °C); shown is the middle of each 90-letter strand. Numbers give uncut DNA relative to the enzyme-free pool, as log2; strong cutting gives strongly negative numbers. There is no active / inactive call. Counts are relative to all reads, so uncut sequences can rise above 0 when many others are cut.

What was measured:
Test in all cases: uncleaved DNA left, log2 of reads against the no-enzyme library (log2 ratio); higher = less cleavage (more negative = more Rep cleavage of the k-mer); sequences stand for … in CTCGTCCG…ACCGGAGA
[1] = tested on: T1, Rep nickase domain of Muscovy duck circovirus
T1 sequence (residues 1-111, tag not shown): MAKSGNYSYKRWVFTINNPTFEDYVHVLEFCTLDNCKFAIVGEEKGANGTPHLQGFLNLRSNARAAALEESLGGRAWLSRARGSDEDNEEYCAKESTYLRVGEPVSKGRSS
Experimental: (§1)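 A pool of 90-nt single-stranded DNAs with seven random bases just before the constant AC of the nick site (name = the seven bases) was cut by 3 µM recombinant His6-SUMO-tagged Rep nickase domain (300 nM DNA, 50 mM HEPES pH 8.0, 50 mM NaCl, 1 mM MnCl2, 1 h, 37 °C, three replicates). Uncut DNA was amplified and sequenced.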

[2] = tested on: T2, Rep nickase domain of banana bunchy top virus
T2 sequence (residues 1-94, tag not shown): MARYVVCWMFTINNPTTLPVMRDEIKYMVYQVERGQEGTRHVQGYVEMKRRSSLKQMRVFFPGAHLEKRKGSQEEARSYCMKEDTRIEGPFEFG
Experimental: as §1

[3] = tested on: T3, Rep nickase domain of cabbage leaf curl virus
T3 sequence (residues 1-116, tag not shown): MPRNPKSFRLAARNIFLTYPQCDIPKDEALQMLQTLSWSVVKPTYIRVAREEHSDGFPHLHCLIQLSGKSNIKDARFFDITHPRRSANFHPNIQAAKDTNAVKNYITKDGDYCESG
Experimental: as §1

[4] = tested on: T4, Rep nickase domain of chickpea chlorotic dwarf virus
T4 sequence (residues 1-124, tag not shown): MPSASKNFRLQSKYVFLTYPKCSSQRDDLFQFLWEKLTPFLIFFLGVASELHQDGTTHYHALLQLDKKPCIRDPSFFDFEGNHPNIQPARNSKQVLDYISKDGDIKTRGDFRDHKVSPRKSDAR
Experimental: as §1

[5] = tested on: T5, Rep nickase domain of faba bean necrotic yellows virus
T5 sequence (residues 1-98, tag not shown): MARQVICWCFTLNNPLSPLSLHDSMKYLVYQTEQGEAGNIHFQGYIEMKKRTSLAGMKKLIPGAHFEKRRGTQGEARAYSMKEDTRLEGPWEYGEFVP
Experimental: as §1

[6] = tested on: T6, Rep nickase domain of maize striate mosaic virus
T6 sequence (residues 1-117, tag not shown): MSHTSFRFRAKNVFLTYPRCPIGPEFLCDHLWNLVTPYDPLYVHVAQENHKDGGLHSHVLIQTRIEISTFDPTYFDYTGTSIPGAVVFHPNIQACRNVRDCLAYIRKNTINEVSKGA
Experimental: as §1

[7] = tested on: T7, Rep nickase domain of porcine circovirus 2
T7 sequence (residues 2-116, tag not shown): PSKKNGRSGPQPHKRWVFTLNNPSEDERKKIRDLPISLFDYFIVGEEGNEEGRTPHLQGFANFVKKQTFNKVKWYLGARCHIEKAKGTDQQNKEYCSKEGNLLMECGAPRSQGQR
Experimental: as §1

[8] = tested on: T8, Rep nickase domain of tomato golden mosaic virus
T8 sequence (residues 1-124, tag not shown): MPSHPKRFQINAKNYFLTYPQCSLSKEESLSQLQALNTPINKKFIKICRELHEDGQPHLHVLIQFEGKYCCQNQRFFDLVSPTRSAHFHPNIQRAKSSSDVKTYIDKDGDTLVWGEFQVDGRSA
Experimental: as §1

[9] = tested on: T9, Rep nickase domain of tomato yellow leaf curl virus
T9 sequence (residues 1-136, tag not shown): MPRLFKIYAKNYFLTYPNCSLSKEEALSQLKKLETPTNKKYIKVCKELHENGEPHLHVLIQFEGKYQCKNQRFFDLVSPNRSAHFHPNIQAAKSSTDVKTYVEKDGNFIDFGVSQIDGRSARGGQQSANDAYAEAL
Experimental: as §1

[10] = tested on: T10, Rep nickase domain of wheat dwarf virus
T10 sequence (residues 1-137, tag not shown): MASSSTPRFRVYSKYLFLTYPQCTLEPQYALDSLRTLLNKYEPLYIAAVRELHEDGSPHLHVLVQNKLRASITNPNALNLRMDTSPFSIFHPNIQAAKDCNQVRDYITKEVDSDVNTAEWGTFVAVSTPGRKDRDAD
Experimental: as §1

Sequence | uncleaved DNA left (log2) [1] | uncleaved DNA left (log2) [2] | uncleaved DNA left (log2) [3] | uncleaved DNA left (log2) [4] | uncleaved DNA left (log2) [5] | uncleaved DNA left (log2) [6] | uncleaved DNA left (log2) [7] | uncleaved DNA left (log2) [8] | uncleaved DNA left (log2) [9] | uncleaved DNA left (log2) [10]
CTCGAGA | -0.0687 | 0.0706 | 0.689 | 1.36 | -0.0526 | 0.968 | -0.0233 | -0.104 | -0.119 | -0.00455
GTCCCCC | -0.0446 | 0.109 | 0.259 | 0.752 | -0.0122 | 1.53 | -0.0932 | 0.0225 | -0.0116 | 0.109
TCTTTAA | 0.084 | 0.136 | 0.241 | -0.166 | 0.17 | -0.126 | 0.0429 | 0.119 | 0.2 | 0.106
CGACGCG | -0.0298 | 0.2 | -0.592 | -0.182 | 0.165 | -0.764 | 0.254 | 0.0648 | 0.298 | -0.0622
CGACGTA | -0.134 | 0.00391 | -0.000417 | 0.565 | -0.0981 | 1.4 | 0.0321 | -0.0502 | -0.159 | 0.0349
ACGCGGG | 0.00374 | -0.03 | -0.515 | -0.362 | 0.0177 | -1 | 0.0744 | -0.0465 | -0.0804 | -0.171
GAGAAGT | 0.124 | 0.0224 | 0.332 | 0.609 | -0.0247 | 0.611 | -2.29 | 0.0752 | 0.116 | 0.109
GGGCTGG | 0.0439 | -0.0503 | 0.656 | 1.64 | 0.034 | 2.05 | 0.216 | 0.105 | -0.0302 | 0.15
GTTAAAG | -0.0705 | -0.0728 | -0.211 | -0.185 | -0.0251 | -0.816 | 0.0234 | 0.0181 | 0.0119 | -0.0329
TGTCGAA | 0.0707 | -0.0107 | 0.0254 | -0.383 | 0.02 | -0.676 | -0.189 | -0.0736 | -0.0117 | -0.109
AATGCGA | 0.0603 | 0.0399 | -0.62 | 0.71 | -0.0144 | -0.354 | 0.12 | -0.159 | -0.031 | -0.128
TTACTTG | 0.106 | 0.00909 | -0.409 | -2.05 | 0.0292 | -0.787 | 0.00764 | -0.116 | -0.0414 | -0.0527
ACTGGAG | 0.0481 | -0.0131 | -0.863 | -0.272 | -0.0331 | -1 | 0.142 | 0.0355 | 0.109 | -0.139
GGTCTAC | 0.116 | 0.155 | 0.463 | 0.984 | -0.0259 | 1.8 | 0.167 | 0.126 | 0.13 | 0.184
AATGATT | -0.0133 | -0.191 | -0.292 | -2.14 | -0.0658 | 0.661 | -1.78 | -0.0305 | -0.159 | -0.0294
CCTTCAG | 0.0517 | -0.169 | -0.676 | -0.548 | 0.0133 | -1.03 | 0.178 | -0.0222 | 0.0122 | -0.191
GCGGGAG | 0.165 | 0.278 | 0.0189 | 0.362 | 0.152 | -0.102 | 0.255 | 0.267 | 0.141 | -0.00429
AATGGTG | 0.0182 | -0.0542 | -0.24 | -0.183 | -0.0127 | -0.547 | 0.0968 | 0.00653 | -0.104 | -0.0257
ACGTGGA | 0.0327 | 0.0049 | -0.239 | -0.257 | -0.0787 | -0.605 | -0.0871 | 0.00909 | -0.199 | -0.0807
TCCCTCT | -0.101 | -0.125 | -0.0391 | -1.86 | -0.0463 | -0.665 | -0.323 | -0.16 | -0.106 | -0.19
GTTCATC | -0.054 | 0.0207 | 0.209 | 0.884 | -0.0975 | 1.52 | 0.0517 | 0.00389 | 0.053 | -0.0313
TTACCTA | 0.037 | 0.143 | 0.106 | -1.98 | 0.101 | -0.0226 | -1.18 | 0.166 | 0.112 | 0.153
CGTCCCG | -0.116 | 0.007 | -0.695 | -0.186 | -0.0466 | -0.747 | 0.0374 | -0.0281 | -0.0375 | -0.136
CATGGTG | 0.0383 | 0.0271 | -0.541 | -0.242 | 0.0692 | -0.692 | 0.157 | -0.0485 | 0.128 | -0.0213
CCAAAGC | 0.0325 | 0.032 | -0.171 | -0.248 | 0.112 | -1.02 | 0.163 | 0.0552 | 0.118 | 0.0966
ACTGATT | -0.0395 | -0.137 | -0.168 | -0.453 | -0.0284 | 0.275 | -0.452 | 0.0115 | -0.0211 | 0.0665
TTATGAA | 0.0373 | 0.0285 | 0.119 | -0.418 | 0.0765 | -0.31 | -0.222 | 0.0411 | -0.0129 | -0.0164
TGAATAA | -0.0506 | -0.0332 | -0.164 | -0.036 | 0.035 | -0.345 | 0.0349 | -0.0379 | 0.0373 | -0.0249
GGCAGCC | 0.166 | 0.173 | 0.618 | 1.42 | 0.0634 | 1.73 | 0.244 | 0.0755 | 0.113 | 0.231
ACGCGGC | -0.021 | 0.0659 | -0.509 | -0.328 | 0.0597 | -0.864 | 0.286 | 0.0988 | 0.0752 | -0.042
